Among all 46,000 compounds or so, about 60 (0.1%) were called active. Inconclusive results (about 3%) are left out. Calls follow the shape of the dose curve; as a rule, active = well fitted inhibition curve with a large enough effect; inconclusive = small, poorly fitted or top-dose-only effect; inactive = no such curve, though single readings can be large or run the other way. The list shows a part of the results.
Assay: Primary qHTS assay for Inhibitors of ovarian cancer metastasis using an organotypic tumor microenvironment (TME) model. Also: nearly all actives have a fitted effect of over 65% in size.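 As to activity change, negative = inhibition: plate controls were DMSO wells for no effect and tomatine positive control wells for full effect.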
Settings: SKOV3ip1-GFP adhesion/invasion on 3D omental model, fluorescence; series mostly up to 45.8 µM; activity change, negative = inhibition: at the top concentration
Outline: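 A 3D layer of primary human omental fibroblasts, mesothelial cells, fibronectin and collagen I, grown 48 hr, received SKOV3ip1-GFP cells in serum-free medium plus compounds at 0.36-46 umol/L. After 2 hr RT and 16 hr 37 C, fixed adherent GFP cells were counted; normalized to DMSO and tomatine.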

outcome, inactive:
Cc1nc(-c2cccnc2)sc1CCNS(=O)(=O)c1ccc(F)cc1, COCCNC(=O)c1cccc(-n2c(C)nc3cccnc32)c1, COc1ccc(NC(=O)CSc2nc3ccccc3n2Cc2cccc(OC)c2)cc1, Cc1ccccc1OCC(=O)Nc1cc(-c2cccc(Br)c2)nn1-c1ccccc1, COc1ccc(NC(=O)Cn2c(=O)n(CCc3ccccc3)c(=O)c3ccccc32)cc1, Cc1noc(/C=C/c2ccccc2F)c1S(=O)(=O)N1CCC(C(=O)N(C)Cc2ccco2)CC1, COC(=O)c1c(N)n(-c2cc(Cl)cc(Cl)c2)c2nc3ccccc3nc12, Nc1c(-c2nc(-c3ccncc3)no2)nnn1CC(=O)Nc1ccccc1, COc1cccc(NC(=O)Cn2c(=O)n(-c3ccc(Cl)cc3)c(=O)c3sc4ccccc4c32)c1, COc1ccc(S(=O)(=O)NCC(c2ccco2)N2CCOCC2)cc1C (stereo unspecified), COc1ccc(C(=O)NCC2(N3CCN(C)CC3)CCCCC2)cc1, COc1ccc(NC(=O)Cn2c(=O)n(Cc3ccc(C(=O)NCc4ccccc4Cl)cc3)c(=O)c3ccccc32)cc1OC, COC(=O)c1cnc(NCc2ccc(F)cc2)c2ccccc12, CCN(CC)C(=O)Cn1c(=O)nc(-c2ccccc2F)c2cc(Cl)ccc21, COc1ccc(CC(=O)NCC(c2ccc(N(C)C)cc2)N2CCOCC2)cc1 (stereo unspecified), CC(C)c1ccc(OC(=O)c2cc(-c3ccc(Cl)cc3)on2)cc1, Cc1ccc(NC(=O)CSc2nc(-c3cccs3)nc3cc(=O)[nH]n23)cc1, Cc1ccc(Nc2nnc(-c3ccc(C)c(S(=O)(=O)N4CCOCC4)c3)c3ccccc23)c(C)c1, CCc1cccc(N2C(=O)N(CC(=O)NCc3cccc(OC)c3OC)c3ccccc3S2(=O)=O)c1, COc1ccc(C(=O)NCCc2sc(-c3ccc(Cl)cc3)nc2C)c(OC)c1, COC(=O)c1ccc(OCC2c3cc(OC)c(OC)cc3CCN2C(=O)C(C)C)cc1 (stereo unspecified), COc1ccc(OC)c(NC(=O)CN(C)S(=O)(=O)c2ccc3[nH]c4c(c3c2)CCCC4)c1, COc1ccc(OC)c(CCNC(=O)c2c(C)nn(-c3ccc(F)cc3)c2-n2cccc2)c1, COc1ccc(Cn2nnc(C(=O)Nc3cc(OC)ccc3OC)c2N)cc1, O=C(CSc1ncc2c(n1)-c1ccc(Cl)cc1N(Cc1ccccc1)S2(=O)=O)Nc1ccc(F)c(F)c1, CCOc1ccc(C2C(C(N)=O)=C(C)Nc3nc(SCc4ccccc4)nn32)cc1 (stereo unspecified)

Activity change, negative = inhibition, inactive:
CCOc1ccc(NC(=O)C2CCN(c3nnc(-n4c(C)ccc4C)s3)CC2)cc1 4.11%, Cc1ccc(NC(=O)c2cc(S(=O)(=O)N3CCc4ccccc43)ccc2F)cc1Cl -8.06%, COc1cc(OC)cc(-n2c(=O)c3sccc3n(Cc3c(C)cc(C)cc3C)c2=O)c1 1.36%, CCc1sc(Nc2cccc(C)c2C)nc1-c1cc2cccc(OC)c2oc1=O 1.27%, COc1ccc(-c2cc(C(F)(F)F)nc(SCC(=O)NCCc3ccccc3)n2)cc1OC -4.19%, O=C(NCc1nc2cccnc2n1Cc1ccc(F)cc1)c1ccccc1C(F)(F)F -0.84%, CCOc1ccc(NC(=O)Cn2nc(-c3ccncc3)ccc2=O)cc1 12.7%, CCCCNC(=O)c1c(C)oc2ncn(CC(C)C)c(=O)c12 0.842%, O=C(c1cccc(Cl)c1)N1CCN(CCc2ccccn2)CC1 -13.2%, COc1cccc(CNS(=O)(=O)c2cc3c(cc2C)n(C)c(=O)c(=O)n3C)c1 5.82%, Cc1noc(-c2ccc(NCc3ccccc3)c([N+](=O)[O-])c2)n1 6.56%, COc1ccc2nc(NC(=O)c3cc(=O)c4ccccc4o3)sc2c1 4.89%, Cc1ccccc1CN1C(=O)c2ccccc2Sc2ccc(C(=O)NCc3cccs3)cc21 11.4%, CCC(=O)N1CCc2cc(Br)cc(S(=O)(=O)N3CCCC(C(=O)NCc4ccccc4)C3)c21 (stereo unspecified) -9.54%, COc1ccc(C(=O)N(Cc2ccco2)Cc2ccco2)cc1 -0.57%, COc1ccccc1CNCCSc1nnnn1C -1.41%, O=C(Cn1c(=O)nc(-c2ccccc2)c2cc(Cl)ccc21)NCCc1ccc(Cl)cc1 -1.41%, CCOc1ccc(/C=C/c2nc3ccccc3n2S(=O)(=O)c2ccc(Br)cc2)cc1 -5.65%, COc1ccccc1N1CCN(S(=O)(=O)c2c(C)sc3ncn(CC(=O)Nc4ccccc4F)c(=O)c23)CC1 7.08%, CCOc1ccc(NC(=O)CSc2nnc(CNC(=O)c3c(F)cccc3Cl)o2)cc1 0.126%, CCc1ccc(NCc2cccn2-c2nnc(N3CCCCCC3)s2)cc1 7.78%, COc1ccc(C)cc1NS(=O)(=O)c1ccc2c(c1)n(C)c(=O)n2C 5.33%, COC(=O)c1ccc(Cl)cc1NC(=O)N(Cc1ccc(C)o1)C1CCN(C(C)=O)CC1 1.77%, Cc1ccc(NC(=O)Cn2nnc3sc(-c4ccccc4)cc3c2=O)cc1Cl 1.08%, CCC(C)NC(=O)c1ccc2c(=O)n3c(nc2c1)CCCCC3 (stereo unspecified) 1.19%, Cc1ccc2c(c1)N(C(=O)NCc1ccccc1)CCO2 5.41%, Cc1nnc2c(Nc3cccc(O)c3)nc3ccccc3n12 -19.1%, CCn1c(=O)c(=O)n(CC)c2cc(N3CCCCC3)c(NC(=O)c3cccc(F)c3)cc21 10.8%, CC(=O)Nc1ccc(C)cc1-c1nc2ccccc2n(CC(=O)Nc2cc(Cl)ccc2C)c1=O -7.42%, CCCN1Cc2cccc(C(=O)Nc3cc(C)cc(C)c3)c2C1=O -12%, COc1ccc(NC(=O)CSc2nc(-c3ccco3)cc(C(F)(F)F)n2)cc1 -3.22%, COc1ccc(Cl)cc1NC(=O)CCC(=O)N1CCOc2ccccc21 -8.88%, CCCNC(=O)N1[C@H](c2ccc(C)s2)[C@@H](C)C(=O)[C@@H](C)[C@@H]1c1ccc(C)s1 7.99%, COc1ccc(N2C(=O)C(CC(=O)Nc3ccc(F)cc3)N(Cc3ccc4c(c3)OCO4)C2=O)cc1 (stereo unspecified) -1.25%, Cc1cc(F)ccc1S(=O)(=O)Nc1ccc2c(c1)CCCN2C(=O)c1cccs1 -24.1%, Cc1ccc(-n2ncc3c(NCCCn4ccnc4)ncnc32)cc1Cl -4.11%, COc1ccc(-n2c(=O)c3sc4ccccc4c3n(CC(=O)Nc3ccccc3F)c2=O)cc1 -20%, CCOC(=O)Cc1ccc(NC(=O)NCc2cccn2Cc2ccccc2)cc1 4.35%, O=C1c2[nH]nc(-c3ccccc3O)c2C(c2ccccc2F)N1Cc1ccncc1 (stereo unspecified) -0.0792%, Cc1ccc2c(c1)NC(=O)C(CC(=O)Nc1ccccc1Cl)O2 (stereo unspecified) 5.15%, Cc1oc(-c2ccc(Cl)cc2)nc1CN1CCC(C(=O)NCCCN2CCN(c3cccc(Cl)c3)CC2)CC1 -3.88%, CC(C)C1CCC(C(=O)N[C@H](Cc2ccccc2)C(=O)O)CC1 (stereo partly specified) 1.31%, CCc1nc2nc(C)cc(Nc3ccc(OC)cc3OC)n2n1 5.79%, CCC(Cc1ccccc1)NC(=O)Cn1ncc2c3ccccc3n(Cc3ccccc3)c2c1=O (stereo unspecified) 1.47%, CCOc1ccc(C(=O)c2cn(Cc3ccc(Cl)cc3)c3cc(OC)c(OC)cc3c2=O)cc1 -13%, Cc1ccc(Cl)cc1N1CCN(C(=O)c2cc(S(=O)(=O)N3CCCC3)cn2C)CC1 11.8%, Cc1cc(C)n2nc(SCC(=O)Nc3ccccc3C)nc2n1 2.25%, COc1cc(NC(=O)CN2C(=O)COc3ccc(S(=O)(=O)N4CCCCC4)cc32)cc(OC)c1 5.83%, CCCN1C(=O)C(Cc2nc3ccccc3c(=O)n2-c2ccccc2)c2cc(C)ccc21 (stereo unspecified) 3.98%, Cc1ccc(C)c(CN2C(=O)c3ccccc3S(=O)(=O)c3ccc(C(=O)N4CCN(c5ccccn5)CC4)cc32)c1 -2.1%, COc1ccc(C)cc1NC(=O)CSc1nc(=O)n(Cc2ccncc2)c2c1CCC2 -0.114%, C=Cc1ccc(CN2C(=O)N(c3ccc(CC)cc3)S(=O)(=O)c3ccccc32)cc1 -6.36%, COc1ccc(C)cc1Nc1nc2cc(Cl)c(Cl)cc2nc1-n1nc(C)cc1C 2.11%, Cc1ccc(NC(=O)Cn2c(=O)n(-c3ccccc3)c(=O)c3c4c(sc32)CCCC4)cc1 14.2%, COc1ccc(C)cc1NC(=O)NCc1ccc2c(c1)CCN2C(=O)c1ccccc1 -7.77%, O=C(CSc1ncc2c(n1)-c1ccccc1N(Cc1ccccc1)S2(=O)=O)Nc1ccccc1 1.64%, COCCNC(=O)c1ccc(CSc2nc3ccncc3n2Cc2ccccc2)cc1 11.2%, CCOC(=O)COc1ccc(C)cc1C(=O)c1ccn2nc(-c3ccc(C)cc3)cc2n1 2.14%, CCOc1ccc(NC(=O)c2c(NC(=O)Cc3ccccc3)sc3c2CCC(C)C3)cc1 (stereo unspecified) -13.4%, COc1cccc(NC(=O)CSc2nc3ccccc3n2C)c1 11.3%, CCC(=O)N1CCc2cc(S(=O)(=O)CCC(=O)N3CCN(c4cc(C)ccc4C)CC3)ccc21 4.29%, CCOc1ccc(NC(=O)c2c(NCc3ccc(C)o3)sc3c2CCC(C)C3)cc1 (stereo unspecified) -3.73%, Cc1nnc(N2CCC(C(=O)NC3CCCCC3)CC2)c2nn(-c3ccc(Cl)cc3)c(C)c12 2.84%, CCn1c(=O)cc(SCC(=O)NCCc2cc(OC)ccc2OC)c2ccccc21 1.23%, Cc1ccc(NC(=O)Cn2c(=O)n(Cc3ccco3)c(=O)c3ccc(C(=O)NC4CCCC4)cc32)c(C)c1 -12.1%, COCCCNC(=O)C1CCN(Cc2nc(-c3ccc(OC)c(OC)c3)oc2C)CC1 2.55%, COc1cc(OC)cc(C(=O)Nc2cc(-c3nc4cc(Cl)ccc4o3)ccc2Cl)c1 -17.9%, CCOC(=O)C1CCCN(CC(=O)N2CCCc3c2c(=O)oc2ccc(OCc4ccccc4)cc32)C1 (stereo unspecified) 2.19%, COc1ccc2c(Sc3ccccc3)c(C(=O)NCCc3ccc(Cl)cc3)[nH]c2c1 -1.86%, O=C(CN1C(=O)COc2ccc(S(=O)(=O)N3CCCC3)cc21)N1CCN(c2ccccc2)CC1 5.75%

Source: PubChem BioAssay AID1963576 (National Center for Advancing Translational Sciences (NCATS), 2024)
